From PubChem BioAssay AID485344 (National Center for Advancing Translational Sciences (NCATS), 2010)
Among all 340,000 compounds or so, about 6,900 (2%) were called active. Rule as the data show it: active = inhibition above about 30%; inactive = below that, where a call was filed. Only a part is listed here, and it is no random draw. The source gives no active or inactive call for entries shown without one.

The compounds below were run against D(2) dopamine receptor (Homo sapiens) (UniProt P14416) (assay: HTS Assay for Allosteric Antagonists of the Human D2 Dopamine Receptor: Primary Screen for Antagonists). Settings: HEK293 TREx D2 cells, calcium flux, dopamine EC80; at 10 µM; stronger effect = higher value.
Summary of the method: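 Antagonism is scored as inhibition of an EC80 dopamine-evoked calcium signal in a force-coupled, tetracycline-inducible HEK293 T-REx D2 line, with compound present 180 s before agonist.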
Also: 0% is about no effect.

Sequence of UniProt P14416 (P14416 whole entry, looked up): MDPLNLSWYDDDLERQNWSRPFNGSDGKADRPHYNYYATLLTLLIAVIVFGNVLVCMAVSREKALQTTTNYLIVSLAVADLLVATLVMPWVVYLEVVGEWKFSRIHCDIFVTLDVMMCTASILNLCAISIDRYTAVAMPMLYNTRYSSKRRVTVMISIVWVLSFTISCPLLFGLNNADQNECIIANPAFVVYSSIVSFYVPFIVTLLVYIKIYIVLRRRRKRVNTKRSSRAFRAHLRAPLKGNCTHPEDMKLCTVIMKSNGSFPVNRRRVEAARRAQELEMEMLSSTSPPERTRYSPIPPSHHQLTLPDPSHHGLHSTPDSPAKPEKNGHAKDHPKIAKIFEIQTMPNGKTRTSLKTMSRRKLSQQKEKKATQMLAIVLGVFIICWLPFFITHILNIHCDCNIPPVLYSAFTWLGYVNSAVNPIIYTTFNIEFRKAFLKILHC

In order of rising inhibition:
1. Cc1cc(C)c(NC(=O)CN2C(=O)CCn3nc(-c4cccn4C)cc32)c(C)c1  -27.9%
2. Cc1ccc(C(=O)Nc2ccc(F)cc2)cc1S(=O)(=O)N1CCCCCC1  -25.2%
3. COc1ccccc1N1CCN(S(=O)(=O)c2ccc3[nH]c4c(c3c2)CCCC4)CC1  -21.4%
4. O=C(NC1CC(=O)N(c2ccccc2)C1)c1cc2ccccc2o1 (stereo not given)  -19.4%
5. C=C(C)Cn1c(SCC(=O)Nc2cc(C)ccc2C)nc2sc3c(c2c1=O)CCCC3  -17.3%
6. Cc1c(C(=O)NCc2ccc(F)cc2)sc2nc(-c3ccccc3)cn12  -14.6%
7. COc1ccc(-c2ccnc3[nH]n(-c4ccccc4)c(=O)c23)cc1  -14.4%
8. Cc1cccc(-n2c(-c3ccco3)nc3c(cnn3-c3ccccc3C)c2=O)c1  -14.4%
9. COc1ccc(-c2nc(Cn3c(SCc4cccc(Cl)c4)nc4ccncc43)c(C)o2)cc1  -13%
10. Oc1c(C(c2ccc(Cl)cc2)N2CCCC2)sc2nc(-c3ccco3)nn12 (stereo not given)  -12.4%
11. COc1cc(-c2nc3cccc(C)n3c2Nc2ccc3c(c2)OCCO3)ccc1O  -12.3%
12. CC(C)Cn1c(-c2ccc(S(=O)(=O)N3CCCC3)cc2)csc1=Nc1ccccc1  -10.8%
13. COc1cccc(-n2c(SCC(=O)Nc3ccc(F)cc3F)nc3c([nH]c4ccccc43)c2=O)c1  -10.4%
14. CCCCOc1ccccc1NC(=O)Cn1c(-c2cncs2)nc2ccccc21  -10.4%
15. CCCOc1ccc(NC(=O)CC2C(=O)N(c3cccc(C)c3)C(=O)N2CCc2ccncc2)cc1 (stereo not given)  -8.95%
16. O=C(Nc1nnc(S(=O)(=O)N2CCCC2)s1)c1ccc(F)cc1  -8.55%
17. COc1ccccc1NC(=O)CSc1nc2ccccc2c(=O)n1CCC(=O)NC1CCCCC1  -8.54%
18. CC(C)c1ccc2oc(-c3ccc(Cl)c(NC(=O)c4cccs4)c3)nc2c1  -7.87%
19. Cc1ccc(Sc2c(C)nn(C(=O)COc3ccccc3)c2C)cc1  -7.69%
20. COC(=O)c1cc2c(cc1NC(=O)c1c(C)nn(-c3ccc(C)cc3)c1-n1cccc1)OCO2  -6.99%
21. Cn1nc(-c2ccc(OCC(=O)Nc3cccc(C(F)(F)F)c3)cc2)c2ccccc2c1=O  -6.88%
22. CCOc1ccccc1C(=O)NCC(c1ccc(N(C)C)cc1)N1CCc2ccccc21 (stereo not given)  -6.06%
23. Cc1ccc(-n2ncc(C(=O)NCCCN3CCN(C)CC3)c2C2CCN(C(=O)OC(C)(C)C)CC2)cc1  -5.87%
24. O=C(CCSCc1cnn(-c2ccccc2)c1-n1cccc1)NCc1ccc(Cl)cc1  -5.67%
25. Cc1ccc(-n2ncc(C(=O)N3CCCCC3)c2C2CCN(C(=O)OC(C)(C)C)CC2)cc1C  -5.04%
26. COc1ccc(CCNC(=O)c2ccc(Cn3c(=O)c4ccccc4n(Cc4ccccc4Cl)c3=O)cc2)cc1OC  -4.66%
27. COc1ccc(OC)c(-n2cnc3cc(C(=O)NC4CCCC4)ccc32)c1  -4.62%
28. Cc1ccccc1NC(=O)C1CCC(CNS(=O)(=O)c2ccc3c(c2)C(C)(C)C(=O)N3C)CC1 (stereo not given)  -4.34%
29. COC(=O)c1c(-c2ccc(Cl)cc2)noc1N1CCN(c2cccc(OC)c2)CC1  -4.31%
30. CCOC(=O)c1cccc(NC(=O)c2cc3c(=O)n(Cc4cccnc4)ccc3nc2C)c1  -3.92%
31. CCOc1ccc(CCNC(=O)c2cn(C)c3ccc(S(=O)(=O)N4CCOCC4)cc3c2=O)cc1OCC  -3.53%
32. CCOC(=O)c1c(S(=O)(=O)N2CCCC(C(=O)N(C)Cc3ccccc3)C2)c(C)n(C)c1C (stereo not given)  -3.2%
33. COc1cc(NC(=O)Cn2ccn(Cc3ccccc3OC)c(=O)c2=O)cc(OC)c1  -3.06%
34. Cc1cccc(-c2nc(N3CCN(c4ccc(F)cc4)CC3)c3ccccc3n2)c1  -2.48%
35. CCOc1cc(-c2ccc(OC(=O)c3ccc(Cl)cc3)c(OC)c2)cc(=O)c2c(C)oc(C)c12  -2.13%
36. Cc1cccc(OCC(=O)NCC2(N3CCN(C)CC3)CCCCC2)c1C  -1.95%
37. Cc1oc2ncnc(N3CCOCC3)c2c1C(=O)NCc1ccccc1  -0.905%
38. CC(=O)Nc1ccccc1OCc1cc(=O)n2c3c(sc2n1)CCCC3  -0.553%
39. CCN1CCN(CCCNC(=O)c2cnn(-c3ccc(C)cc3)c2C2CCN(C(=O)OC(C)(C)C)CC2)CC1  -0.545%
40. O=C(CN1CCN(Cc2ccc(F)cc2Cl)S1(=O)=O)Nc1ccc(F)cc1  0.0041%
41. Cc1ccccc1CN1c2ccccc2-c2nc(SCC(=O)Nc3cc(F)ccc3F)ncc2S1(=O)=O  0.151%
42. Cc1cccc(NS(=O)(=O)c2ccc(Cl)c(C(=O)Nc3ccccc3C)c2)c1  0.421%
43. CCOC(=O)c1cccc(Nc2nc(C(=O)OCC)nc3ccccc23)c1  0.995%
44. Cc1ccc(Cn2nc(C)c(NC(=O)c3cc(-c4ccc(F)cc4)on3)c2C)cc1  1.09%
45. COc1cccc2c1cc1c(=O)n(CC(=O)N3CCN(c4ccccc4F)CC3)nc(C)n12  1.26%
46. Cc1nn(C(=O)c2ccccc2)c(C)c1Sc1ccc(Cl)cc1  1.53%
47. CC(C)(C)C(=O)Nc1cc(-c2cccc(Br)c2)nn1-c1ccccc1  2.1%
48. CCCCCn1c(=O)[nH]c2cc(C(=O)N3CCN(c4ccccc4F)CC3)ccc2c1=O  2.29%
49. Cn1c2ccccc2c2cnn(CC(=O)NCc3ccc(Cl)cc3)c(=O)c21  2.71%
50. Cc1ccc(C(=O)c2cn(Cc3cccc(F)c3)c3nc(C)ccc3c2=O)cc1  2.77%
51. O=C(NCCCc1nc2ccccc2n1Cc1ccc(F)cc1)C1CCCCC1  2.91%
52. Cc1nc2sccn2c(=O)c1S(=O)(=O)N1CCN(c2ccc(F)cc2)CC1  3.86%
53. COc1ccc(/C=C\c2onc(C)c2S(=O)(=O)N2CCC(C(=O)Nc3ccc(Cl)cc3)CC2)cc1  4.58%
54. CC(=O)c1ccc(N2CCN(c3ncnc4onc(-c5ccc(Cl)cc5)c34)CC2)cc1  5.11%
55. COc1ccc(C(=O)NCc2ccc3c(c2)CCN3C(=O)c2cccc(C)c2)cc1OC  5.3%
56. CCc1ccc(NC(=O)C2CCCN(S(=O)(=O)c3ccc4c(c3)CCCN4C(C)=O)C2)cc1 (stereo not given)  5.39%
57. O=C1CS(=O)(=O)C2(C(=O)Nc3ccccc32)N1c1cccc(Cl)c1 (stereo not given)  5.69%
58. CCOc1ccc(NC(=O)Cn2c(=O)oc3cc(S(=O)(=O)NC4CCCC4)ccc32)cc1  6.03%
59. CCOC(=O)c1[nH]c2ccccc2c1NC(=O)c1ccc(OCC)cc1  6.09%
60. Cc1ccc(-n2c(=O)c3c(cnn3C)n(CC(=O)Nc3cc(C)ccc3C)c2=O)cc1  6.58%
61. Cc1ccc(C(c2sc3nc(-c4ccco4)nn3c2O)N2CCOCC2)cc1 (stereo not given)  7.31%
62. COc1ccc2[nH]c(=O)c(CN(C(=O)c3cccc(Cl)c3)c3ccccc3OC)cc2c1  8.47%
63. CCc1ccc(S(=O)(=O)c2nnn(-c3ccc(F)cc3)c2N)cc1  8.48%
64. Cc1oc(-c2ccccc2)nc1CNS(=O)(=O)c1ccc(Cl)cc1  8.49%
65. CCOc1ccc(-c2cc(C(=O)NCc3ccc(OC)cc3)c3c(-c4ccc(F)cc4)[nH]nc3n2)cc1  8.79%
66. Cc1ccc(NC(=O)Cn2c(C)cc(C)c(C#N)c2=O)cc1  10.6%
67. COc1ccc(OCc2ccc(-c3nc(C#N)c(N4CCC(C)CC4)o3)o2)cc1  10.8%
68. Cc1cccc(Cn2c(C)c(C)c3cc(C(=O)NCc4ccco4)ccc32)c1  11.8%
69. Cc1ccc(C)c(CSc2nc3c([nH]c4ccccc43)c(=O)n2C)c1  11.9%
70. Cc1ccc(-n2ncc3c(N(C)Cc4ccccc4)ncnc32)cc1  12.2%
71. CCOC(=O)c1ccc(N2CCN(c3ccc(F)cc3)CC2)c(NC(=O)Nc2cccc(OC)c2)c1  12.9%
72. O=C(CCn1cccn1)Nc1cccc(C(F)(F)F)c1  13%
73. CCC(=O)N1CCc2cc(Br)cc(S(=O)(=O)CCC(=O)N3CCN(c4ccccc4OC)CC3)c21  14.5%
74. COc1ccc(NC(=O)c2cc(S(=O)(=O)N3CCOCC3)cn2C)cc1Cl  14.8%
75. c1csc(-c2nc3ccccn3c2Nc2ccc3c(c2)OCCO3)c1  15.2%
76. Cn1cnc(S(=O)(=O)N2CCC(C(=O)NCc3ccccc3)CC2)c1  15.4%
77. CCOc1cc(-c2nnc(SCC(=O)NCc3ccccc3)nc2-c2ccc(OC)c(OCC)c2)ccc1OC  15.8%
78. CCCN(Cc1cccs1)C(=O)Nc1ccc(Br)c(C)c1  15.9%
79. Cc1ccc(NC(=O)c2ccc3snnc3c2)cc1Cl  15.9%
80. COc1ccc(C(=O)N2CC(=O)Nc3ccc(C)cc3C2c2ccccc2)c(OC)c1 (stereo not given)  16.2%
81. CCOc1ccc(NC(=O)CCCc2nc(-c3cccc(OC)c3)no2)cc1  17.1%
82. Cc1cc(NS(=O)(=O)c2ccc(NC(=O)c3ccccc3F)cc2)nc(C)n1  17.5%
83. CCCCOC(=O)c1ccc(NC(=O)CSc2nc3c(c(=O)[nH]2)CCC3)cc1  23.5%
84. CS(=O)(=O)N1CCc2cc(S(=O)(=O)NCc3ccccc3Cl)ccc21  27.4%
85. COc1ccc(S(=O)(=O)NCCc2csc3nc(-c4ccc(Cl)cc4)nn23)cc1C  27.9%

`CN1C(C(=O)NCCc2cccs2)CC2Cn3c(nc4cc(Cl)c(Cl)cc43)C21` (stereo not given) was tested, and the inhibition was active: 47.5%.
In the case of `Cc1cccc(Nc2nc(N)c([N+](=O)[O-])c(N3CCN(C)CC3)n2)c1`, the inhibition is reported as active: 55.5%.
In the case of `CCOc1ccc(NC(=O)CN2CCN(CC(=O)Nc3ccc(OC)cc3OC)CC2)cc1`, the inhibition is reported as active: 32.4%.
With `Cc1cc2nc(N)sc2cc1C` the inhibition was active: 34.2%.
For `O=c1oc(-c2ccco2)nc2ccccc12`, the inhibition was active: 36.3%.
For `COc1ccc(-c2cc3c(=O)n(CC(=O)NCCCN4CCN(Cc5ccccc5)CC4)ncn3n2)cc1`, the inhibition was active: 37.1%.
`CN(C)S(=O)(=O)Nc1ccc(Oc2ccccc2)cc1` was tested, and the inhibition was active: 34.6%.
`Cc1cc(Cl)ccc1Oc1ncc(CN2CCN(c3ccccc3)CC2)s1` was tested, and the inhibition was active: 83.6%.
For `Cc1ccc(NS(=O)(=O)c2ccc(C)c(NC(=O)COc3ccccc3)c2)c(C)c1`, the inhibition was active: 66.6%.
With `COc1ccc(CN2CCN(Cc3cn(C)nc3-c3ccccc3)CC2CCO)c(C)c1C` (stereo not given) the inhibition was active: 33.2%.
